From the supplement of paper PMC11417369
± gives the standard deviation of the averaged measurements. Some of the results follow.

System: PfAP2-I AP2 domain 3 (GST-tagged)
Assay: gcPBM binding intensity (ln(normalized median fluorescence intensity)); higher = stronger DNA binding
Procedure, shortened: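 For binding intensity, the highest Masliner-normalised natural-log median intensity across replicate spots of either probe orientation was taken. Protein bound to the array was stained with Alexa488 anti-GST antibody and scanned at 488 nm. The protein, GST-tagged P. falciparum DNA-binding domains from E. coli at about 25 μg on average, had been applied for 1 h to an Agilent 4 × 180k array of primer-extended double-stranded 36-bp intergenic genomic probes and negative controls.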

Sequence | gcPBM binding intensity (ln)
AATTATTTTATGAAAAGTACACATTGTTTTAATTCT [XGTACX_site4506] | 7.82 ± 0.38
TAAATAAGTATTACTAGTACACACAAGTTGTTAATC [XGTACX_site7074] | 7.9 ± 0.45
CATTTTTTAATAATAGCACACAGGACATACAAAACA [CACACA_site1245] | 8.53 ± 0.34
ACAGTATCTGGTAGCTGTACGAGTCGTAGAGTGTAG [XGTACX_site2011] | 8.23 ± 0.65
AATATATAAATAAATATATAAATAAATAATTGAAGC [CACACA_negctrl_site348] | 7.75 ± 0.59
TTCATTAATGTGTAATGTACTTGTAATATGGGATTA [XGTACX_site3903] | 7.76 ± 0.23
AAAATATAAAGTATTTGTACATAATATATTTTTAAA [XGTACX_site3494] | 7.39 ± 0.35
TTATATTTCAATTAAACATGCATTTTTGTGTAGCAC [TGCATGCA_site214] | 8.04 ± 0.76
TCATATAGATTATACACACACATATATAGATATATA [CACACA_site6587] | 7.79 ± 0.4
TTATATATTTTATTATTTATAATCTTTTTTTTATTT [CACACA_negctrl_site112] | 7.36 ± 0.49
CAAAAGCGATACGGCACACATTTCCTGTTTAAATGA [CACACA_site5519] | 8.93 ± 0.11
TTAATTTTTAGAAGAACACACACATATATATTATGA [CACACA_site7969] | 7.49 ± 0.63
AAATTGATTATAAATTGTACAAGAACATACAACCTT [XGTACX_site5986] | 7.53 ± 0.67
TTTATTTATTATTAAAGTACTAAATCATATAATTAT [XGTACX_site5727] | 7.5 ± 0.45
AAATTAAAAAAATAATGTACATGTATTTATTATGTA [XGTACX_site2419] | 7.66 ± 0.35
TTTCTGTGTTTTGGTTGTACACACGCTACATTATAT [XGTACX_site5669] | 8.53 ± 0.67
TTGTTTTTTTTTTCTATAAGCATAAAAATGATATAA [XGTACX_negctrl_site356] | 7.66 ± 0.25
TAAAACAATACTTTGTGCTTCTCTGGTTTTTTTTTT [GTGCAC_negctrl_site284] | 7.62 ± 0.76
GCTTTTAAAATAATTGGTACACATGTATAAATTCAA [XGTACX_site2327] | 7.89 ± 0.57
AGTATTCACTTAATATGTACATATTTATTATAAGAG [XGTACX_site3434] | 7.99 ± 0.28
TTTTATTTCTTTGCACCATTTTAAATACAAACAAAT [CACACA_negctrl_site1553] | 11.1 ± 0.79
TTTTGCCTTTCTACTTGTACTTAAAATATTATAATT [XGTACX_site5483] | 8.37 ± 0.66

Sequence | gcPBM binding intensity (ln)
TGGTATATAAAACACACACACATATGTATTTATATA [CACACA_site4665] | 7.79 ± 0.53
ACTCCATAATATTGATGTACTATAATGCATTTATTT [XGTACX_site5562] | 8.15 ± 0.83
TTATAGAATTTATTTACACACAAACATTTATACTTT [CACACA_site7592] | 7.88 ± 0.39
TATTTATTTTCATATAGTACTTTTTTCAGGCATATA [XGTACX_site6691] | 7.79 ± 0.53
TTCAAAAGCCGGATAACATGCAGTAGTAGAACAAAC [TGCATGCA_site413] | 8.67 ± 1.1
TTTATTTATGTTGAAACATGCAAAAAGTTATTTATA [TGCATGCA_site716] | 7.4 ± 0.49
ATATGAACATTTACATGTACATGTAAATGTAACACT [XGTACX_site4574] | 7.9 ± 0.49
GAAAATATGTAATAGTGTACACATATATATGTATAT [XGTACX_site306] | 8.01 ± 0.59
TGCTCATTCCTGTCATGTACATATTATATATATATA [XGTACX_site6890] | 9.16 ± 0.4
CACAAAAAGAAACACACACACATATATATATATATA [CACACA_site999] | 9.56 ± 0.64
ATTCTAAATAATAAGAGTACAAATAATATGGAGAAG [XGTACX_site5209] | 8.21 ± 0.43
TTCTAACTTTTAAACACACAAATATAAATAAGTATA [CACACA_site7473] | 7.67 ± 0.47
AAGAATAATAATAAATGTACACAATATTATATATAT [XGTACX_site5525] | 8.41 ± 0.46
AAATGAACAAGTGGCACACACACATTATAACTAATT [CACACA_site9048] | 8.25 ± 0.59
GAACGTATCATGTGTACACACAAATTGTTTTTTTTT [CACACA_site2020] | 7.93 ± 0.83
TGCAAGCTTATATAGGTGCACATGTATACGTGTTCA | 9.7 ± 0.33
TATGTAGTCACAAGGTGTACACTTTAACAAATTATG [XGTACX_site8792] | 8.23 ± 0.52
TATATACACAAACACACACACACATACACCCACATA [CACACA_site8504] | 8.27 ± 0.071
TATTAAAATTAAAAAAAAAAAAAAAAGCAATAAAAA [XGTACX_negctrl_site426] | 7.54 ± 0.63
GTGCATATCTGATATACACACAATAAAATAGTATGT [CACACA_site7203] | 9.37 ± 0.4
AATTATATATTTGAGAGTACATATGTAATGTTTATA [XGTACX_site6970] | 7.75 ± 0.35
TATGATACATAAATATGTACGTATAATATATATTTA [XGTACX_site7002] | 7.8 ± 0.23

Sequence | gcPBM binding intensity (ln)
CATATATTATTTATACGTACTAATAAAATAAATCAA [XGTACX_site1030] | 7.92 ± 0.042
CCCGTAAATTATGAGTGTACGTTATTTTTTAAAATG [XGTACX_site3946] | 8.29 ± 0.84
ACATATACATATATATGTACATAAATATATATATAT [XGTACX_site8630] | 8.93 ± 0.39
ATATATATATATTGCACACACAATTATTATTATTAT [CACACA_site2299] | 10.3 ± 0.3
ATGCTTTTTAAATGATTGCACTAGATTGTAATATGT [GTGCAC_site9666] | 9.41 ± 0.11
TATATATATATTTTAACACACACATATATATATTTA [CACACA_site8892] | 9.05 ± 0.2
TGTATGAAATATATTACACACATATAAAATCTATAT [CACACA_site6514] | 7.65 ± 0.42
TTGATGTTGGTAGGATGTACGGTACCGGTAAAGTTT [XGTACX_site7705] | 8.06 ± 0.79
TTTTTAATTTTTTGTTGTACATATAATATATTATTA [XGTACX_site4903] | 7.95 ± 0.47
AAGCTTCATTAATATACACACATATATGCGTATATT [CACACA_site3695] | 7.67 ± 0.49
AAATTTGAAGAATATTGTACGCATAATAATTAAATA [XGTACX_site4300] | 7.95 ± 0.42
TATATAATTATAAGAACACACATATATATATATATA [CACACA_site2472] | 9.51 ± 0.51
AATAATACACAATTTTGTACGTATTTAAAATATATT [XGTACX_site45] | 7.83 ± 0.28
TAAAATATATAATAATGTACATATTTTTATTTAGGA [XGTACX_site4987] | 7.62 ± 0.22
TATTTATGAGAAATAGTGCAAAGATATGATCTTTAA | 9.5 ± 0.21
AATTAAAAACATTTCACACATAAAAATGAAATATAT [CACACA_site5199] | 7.62 ± 0.63
AAAAATTACCTGACTTGTACATAATTTAAGAACAAT [XGTACX_site6233] | 7.58 ± 0.59
ATAATATATTTATAATGTACATAAGAACAAATTAAA [XGTACX_site1745] | 7.83 ± 0.38
GGTATATTAAAATAGGTGCATAAAACTAAGAGAAAA [GTGCAC_site9781] | 11.3 ± 0.54
ACGTTTGATACACATAAAGTTTTCCTTTGAATGTAC [CACACA_negctrl_site106] | 7.78 ± 0.61
ATAAAATAAAAGTGTACACAAGAAAATATGTTATGT [CACACA_site6033] | 8.54 ± 0.53
TGTGCTATATTCATATGTACATATAATTATTATATA [XGTACX_site3549] | 9.52 ± 0.57

Sequence | gcPBM binding intensity (ln)
AACATGAAAGATAGCAAAAAAAAAAAAAAAAAAAAA [TGCATGCA_negctrl_site607] | 8.1 ± 0.89
AAAAAATAATAAATCACACATATTATATATATATAT [CACACA_site5838] | 9.12 ± 0.4
CATATTAATATTATGGGTACATATAAATTTACATTC [XGTACX_site687] | 7.77 ± 0.35
TCTTTTTTTATTTTATTTTTTTTTTTTAAATAATTC [TGCATGCA_negctrl_site372] | 7.45 ± 0.67
ATTATAATATTGTTATGTACATAAAAATTATTGAAT [XGTACX_site4476] | 7.9 ± 0.57
AAAACATAAATACATACACACATAATATATATTAAT [CACACA_site109] | 7.62 ± 0.65
ACTTGACACGGACACACACACATATATAAAAAAAAA [CACACA_site4576] | 8.29 ± 0.25
TTTTTTTATTATCATGCACACATTTTTTTTTTTTAC [CACACA_site2253] | 8.88 ± 0.56
TCCTTTATTTTTAAATGTACAAATATTATCTCCTCA [XGTACX_site5856] | 7.79 ± 0.44
ATAATAAAAATAAGAGAATAAAAATGCAATTTAATG [CACACA_negctrl_site878] | 7.95 ± 0.47
TGATTCTTTTGTATCACACACACTTAGTTTAATTTT [CACACA_site2404] | 7.7 ± 0.8
ATTGATCGGATAAAATGTACAAATATATATATATAT [XGTACX_site7345] | 9.28 ± 0.32
ATTTATAATGTGTATACACACATATATAGATTTGCT [CACACA_site6440] | 7.54 ± 0.48
AACTCACATAAATTCACACAAATGTATATTCATATA [CACACA_site4554] | 7.62 ± 0.72
AAATTATAATATAATACACACATAAAAAAAAAATCA [CACACA_site3634] | 7.76 ± 0.45
TATATATATATATATTGTACACATATATATTTACGA [XGTACX_site4791] | 9.43 ± 0.69
ATATTTATATGAATCACACACAAAAAATATAGAGAT [CACACA_site7775] | 7.88 ± 0.57
ACTGTGGGAATAACCACACACACACCCACATATATA [CACACA_site3542] | 8.04 ± 0.58
TTATTATATAAATAAAAAAAAAAAAAAAAAAAAAAA [CACACA_negctrl_site1455] | 8.17 ± 0.99
TATATACGCATGCGCACACACAAGTGGGAAATTTGG [CACACA_site1785] | 8.19 ± 0.61
CATAAATACAAATATACACACATATATATATATATA [CACACA_site2633] | 9.37 ± 0.32
AATATGTTTTTTAGATGTACAGATTAAATATTAAAA [XGTACX_site7308] | 7.76 ± 0.29
